Assay [1] concerns RAW-Dual. In words: IRF Lucia reporter activity, fold change vs agonist alone; cytotoxicity flag (confluency mask): not cytotoxic; higher = enhanced IRF activity. A digest of the protocol: (§1)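 Supernatant from RAW-Dual macrophages was read after 20 hours for IRF by QuantiLuc luminescence and for NF-κB by QuantiBlue absorbance at 620 nm. The cells (50,000 cells/well in DMEM, 384-well plates, 37 °C, 5% CO2) had received 50 nL of library stock by pin tool and, 1 h later, a PRR agonist. Reporter activity is expressed relative to agonist-alone wells as fold change, and wells were flagged cytotoxic if IncuCyte confluency was under 70% of agonist controls in both mask sets.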

Assay [2] relates to RAW-Dual. In words: IRF Lucia reporter activity, fold change vs agonist alone; higher = enhanced IRF activity. Particulars: library stock concentration (final ~1000-fold dilution): 10 mM, agonist: MPLA (TLR4) […]. A digest of the protocol: as §1
Assay [3] concerns RAW-Dual. In words: IRF Lucia reporter activity, fold change vs agonist alone; cytotoxicity flag (confluency mask): cytotoxic (confluency <70% of control); higher = enhanced IRF activity. Put shortly:
as §1

Setting [4] is: agonist: 3'3'-cGAMP (STING) 10 ug/mL.
The mark [5] stands for this setting: cytotoxicity flag (confluency mask): not cytotoxic.
The mark [6] stands for this setting: cytotoxicity flag (confluency mask): cytotoxic (confluency <70% of control).

Whole data set: some 2,900 compounds, median “IRF Lucia reporter activity, fold change vs agonist alone” near 0.9, cut for the highest 2% near 2.8. Some of the results follow.

`CNC(C)C(=O)NC(C(=O)N1CCCC1C(=O)NC(C(=O)NCCCCCCNC(=O)C(NC(=O)C1CCCN1C(=O)C(NC(=O)C(C)NC)C1CCCCC1)C(c1ccccc1)c1ccccc1)C(c1ccccc1)c1ccccc1)C1CCCCC1` (configuration not stated) (library stock concentration (final ~1000-fold dilution): 10 mM): the “IRF Lucia reporter activity” value with RAW-Dual [1] (setting [4]) came out at 0.642; in the assay on RAW-Dual [1] (agonist: LPS (TLR4) 0.1 ug/mL) it was 0.589.
With `O=C(CCCCCCC(=O)NO)NO`, in the assay on RAW-Dual [2] (setting [5]), the “IRF Lucia reporter activity” value was determined as 0.725.
As to `O=C(CCCCCCC(=O)NO)NO` (library stock concentration (final ~1000-fold dilution): 10 mM), the results for the “IRF Lucia reporter activity” value in the assay on RAW-Dual [1] (setting [4]) and in the assay on RAW-Dual [1] (agonist: LPS (TLR4) 0.1 ug/mL) were 0.237 and 0.614, respectively.
On to `FC(F)(F)c1ccc(CNc2ccc(Cc3c[nH]c4ncc(Cl)cc34)cn2)cn1` (library stock concentration (final ~1000-fold dilution): 10 mM), for which the entries for the “IRF Lucia reporter activity” value with RAW-Dual [1] (setting [4]) and in the assay with RAW-Dual [1] (agonist: LPS (TLR4) 0.1 ug/mL) were 0.0689 and 0.217, respectively.
On the same counts, the results for `CCOC(=O)C(CCc1ccccc1)NC1CCc2ccccc2N(CC(=O)O)C1=O` (configuration not stated) (library stock concentration (final ~1000-fold dilution): 10 mM) are 1.01 and 0.636.
As to `CCOC(=O)C(CCc1ccccc1)NC1CCc2ccccc2N(CC(=O)O)C1=O` (configuration not stated), the “IRF Lucia reporter activity” value in the assay on RAW-Dual [2] (setting [5]) was found to be 1.04.
Consider `O=C(C=Cc1ccc(O)cc1)c1ccc(O)cc1O` (library stock concentration (final ~1000-fold dilution): 10 mM), for which the “IRF Lucia reporter activity” value is 0.252 in the assay on RAW-Dual [1] (setting [4]) and 0.535 with RAW-Dual [1] (agonist: LPS (TLR4) 0.1 ug/mL).
Turning to `CN(C)CCCN1c2ccccc2Sc2ccc(Cl)cc21.Cl`, the “IRF Lucia reporter activity” value in the assay on RAW-Dual [2] (setting [5]) is 1.07.
As to `CN(C)CCCN1c2ccccc2Sc2ccc(Cl)cc21.Cl` (library stock concentration (final ~1000-fold dilution): 10 mM), the “IRF Lucia reporter activity” value in the assay with RAW-Dual [1] (setting [4]) is 1.07; with RAW-Dual [1] (agonist: LPS (TLR4) 0.1 ug/mL), 1.51.
`CN(C)c1ccc2nc3ccc(=[N+](C)C)cc-3sc2c1`: the “IRF Lucia reporter activity” value with RAW-Dual [2] (setting [6]) is 0.725.
As to `CN(C)c1ccc2nc3ccc(=[N+](C)C)cc-3sc2c1` (library stock concentration (final ~1000-fold dilution): 10 mM), the “IRF Lucia reporter activity” value in the assay on RAW-Dual [3] (setting [4]) came out at 0.441; with RAW-Dual [3] (agonist: LPS (TLR4) 0.1 ug/mL), 1.07.
With `COc1cc(/C=C/C(=O)N2CCC=CC2=O)cc(OC)c1OC`, the “IRF Lucia reporter activity” value with RAW-Dual [2] (setting [5]) is 0.0498.
For `COc1cc(/C=C/C(=O)N2CCC=CC2=O)cc(OC)c1OC` (library stock concentration (final ~1000-fold dilution): 10 mM), the “IRF Lucia reporter activity” value in the assay with RAW-Dual [1] (setting [4]) was found to be 0.0368; in the assay on RAW-Dual [1] (agonist: LPS (TLR4) 0.1 ug/mL), 0.0524; with RAW-Dual [3] (setting [4]) it was 0.0101; with RAW-Dual [3] (agonist: LPS (TLR4) 0.1 ug/mL), 0.00877.
Regarding `CCc1nc(-c2cccc(C)c2)c(-c2ccnc(NC(=O)c3ccccc3)c2)s1` (library stock concentration (final ~1000-fold dilution): 10 mM), the “IRF Lucia reporter activity” value in the assay on RAW-Dual [1] (setting [4]) was found to be 0.553; with RAW-Dual [1] (agonist: LPS (TLR4) 0.1 ug/mL) it was 0.757.
Take `CCc1nc(-c2cccc(C)c2)c(-c2ccnc(NC(=O)c3ccccc3)c2)s1`: the “IRF Lucia reporter activity” value in the assay with RAW-Dual [2] (setting [5]) came to 1.02.
In the case of `CCCCCC/C=C\CCCCCCCc1cccc(O)c1C(=O)O` (library stock concentration (final ~1000-fold dilution): 10 mM), the figures for the “IRF Lucia reporter activity” value in the assay on RAW-Dual [1] (setting [4]) and in the assay on RAW-Dual [1] (agonist: LPS (TLR4) 0.1 ug/mL) were 0.776 and 0.673, respectively.
On the same counts, the results for `CC1CC(=O)c2c(ccc3c2C(=O)c2cccc(O)c2C3=O)C1` (configuration not stated) (library stock concentration (final ~1000-fold dilution): 10 mM) are 0.519 and 0.878.
On the same counts, the results for `Cn1c(=O)c2c(ncn2CC(=O)O)n(C)c1=O` (library stock concentration (final ~1000-fold dilution): 10 mM) are 1.07 and 1.25.
Regarding `Cn1c(=O)c2c(ncn2CC(=O)O)n(C)c1=O`, in the assay with RAW-Dual [2] (setting [5]), the “IRF Lucia reporter activity” value worked out at 1.12.
With `CS(=O)(=O)c1cccc(CNc2nc(Nc3ccc4c(c3)CCC(=O)N4)ncc2C(F)(F)F)c1` (library stock concentration (final ~1000-fold dilution): 10 mM), the results for the “IRF Lucia reporter activity” value in the assay on RAW-Dual [1] (setting [4]) and in the assay on RAW-Dual [1] (agonist: LPS (TLR4) 0.1 ug/mL) were 0.0175 and 0.0202, respectively.
`CS(=O)(=O)c1cccc(CNc2nc(Nc3ccc4c(c3)CCC(=O)N4)ncc2C(F)(F)F)c1`: the “IRF Lucia reporter activity” value with RAW-Dual [2] (setting [5]) turned out to be 0.0174.
With `CC1(C)CCC(CN2CCN(c3ccc(C(=O)NS(=O)(=O)c4ccc(NCC5CCOCC5)c([N+](=O)[O-])c4)c(Oc4cnc5[nH]ccc5c4)c3)CC2)=C(c2ccc(Cl)cc2)C1` (library stock concentration (final ~1000-fold dilution): 10 mM), the figures for the “IRF Lucia reporter activity” value in the assay on RAW-Dual [1] (setting [4]) and in the assay on RAW-Dual [1] (agonist: LPS (TLR4) 0.1 ug/mL) were 1.05 and 1.5, respectively.
On to `CC(C)(C)n1nc(-c2ccc(Cl)cc2)c2c(N)ncnc21`, for which the “IRF Lucia reporter activity” value in the assay on RAW-Dual [2] (setting [6]) was found to be 0.504.
Regarding `CC(C)(C)n1nc(-c2ccc(Cl)cc2)c2c(N)ncnc21` (library stock concentration (final ~1000-fold dilution): 10 mM), the “IRF Lucia reporter activity” value in the assay on RAW-Dual [3] (setting [4]) was determined as 0.961; with RAW-Dual [3] (agonist: LPS (TLR4) 0.1 ug/mL) it was 0.439.
Consider `Cc1nc(Nc2ncc(C(=O)Nc3cc(NC(=O)c4cccc(C(F)(F)F)c4)ccc3C)s2)cc(N2CCN(CCO)CC2)n1` (library stock concentration (final ~1000-fold dilution): 10 mM), for which the “IRF Lucia reporter activity” value in the assay on RAW-Dual [1] (setting [4]) was 0.13; in the assay on RAW-Dual [1] (agonist: LPS (TLR4) 0.1 ug/mL) it was 0.118.
The corresponding values for `Cc1cc(C(=O)NNCc2ccccc2)no1` (library stock concentration (final ~1000-fold dilution): 10 mM) are 1 and 0.873.
As for `O=c1cc(-c2ccc(O)c(O)c2)oc2cc(O)c(C3OC(CO)C(O)C(O)C3O)c(O)c12` (configuration not stated) (library stock concentration (final ~1000-fold dilution): 10 mM), the “IRF Lucia reporter activity” value worked out at 0.978 in the assay on RAW-Dual [1] (setting [4]) and 1.3 in the assay on RAW-Dual [1] (agonist: LPS (TLR4) 0.1 ug/mL).
